To fix the notation:
T1: UNK ZnF1-3 (human, UniProt Q9C0B0 31-174)
T1 sequence: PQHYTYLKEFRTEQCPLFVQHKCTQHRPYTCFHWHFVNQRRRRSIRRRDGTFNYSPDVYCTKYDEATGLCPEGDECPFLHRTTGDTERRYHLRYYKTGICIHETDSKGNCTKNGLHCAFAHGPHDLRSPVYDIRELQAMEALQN

B1: chr7:127231458:127231459:+_ENSG00000004059_ENST00000000233|hu_mus|FALSE|FALSE (ssRNA)
RNA: GGGAGUUCUACAGUCCGACGAUCUCCAGGCUCCAACGACAAGAGAGAGCAUGCAGGCAGGCGCAGGAGCAGAGGCCUGUCUGUGGGGAGGAAGAGUGGGGAGGAAGGGCACUGCCUGAGGAGUCCGGGAGUCUGGUCAUCCCGCAACAGAGGAUUGAGCAUCA
B2: chr6:30692278:30692279:+_ENSG00000196230_ENST00000327892|hu_mus|FALSE|FALSE (ssRNA)
RNA: GGGAGUUCUACAGUCCGACGAUCUCAGAGUGGAAAGAGAAAGGAGACAUUCCACAAACAAAUAUUUAUUGAGUGCCUGCCAUGUGCCAGGCACCAUUUACCCCCAAUGAGAAAACAGAACAAAACAAAUACAAGACAGAGGCACAACAGAGGAUUGAGCAUCA
B3: chr3:10015032:10015033:+_ENSMUSG00000027533_ENSMUST00000029046|mus_mus|mus_mus_mus_hu_True|8_8 (ssRNA)
RNA: GGGAGUUCUACAGUCCGACGAUCGUUUUUACCAUCACAAGUGAUGAUACAAUCUGGCUUGGCCAUUGCGCCCAUUUUUCGCAAAGCUAUUCCCACUCCUAGCUCCUUCAUGUAUUCAUCAAAGCCUUGGCUUUCCACCAGGCGCAACAGAGGAUUGAGCAUCA
B4: 27671025_27672237_8332_CDS_ENSMUSG00000022263_ENSMUST00000090247|mouse|control|control (ssRNA)
RNA: GGGAGUUCUACAGUCCGACGAUCGUUAAGAAGCUUCACAGAUACCUUGUUACUGAGCCCUUCUCGUGGCUUCCUGUACCCAUUCUCCAACUUGCCAUCCCUUUUGCCGUCUUUAUCUUUCUUCUCAGACUUCUUCCUUAAACGCAACAGAGGAUUGAGCAUCA
B5: chr11:87793471:87793472:-_ENSMUSG00000020483_ENSMUST00000020775|mus_mus|mus_mus_mus_hu_False|8_18 (ssRNA)
RNA: GGGAGUUCUACAGUCCGACGAUCUGGACUUGAAAAUAAAAGAAUAAGCUGGAUCCCCCACCCCCCCACAUUGUCAACCCUACACGAGAGUUUUGAAGGCGACUCAUGAAAAUCAGCCUCAAUUGGCAAUGACAACCCCCCACCCAACAGAGGAUUGAGCAUCA
B6: chr14:78183846:78183847:+_ENSG00000119705_ENST00000557342|hu_hu|hu_hu_hu_mus_False|38_38 (ssRNA)
RNA: GGGAGUUCUACAGUCCGACGAUCUCUCAGAAAUCUUUCUUCAUCAGAUGUUUGAGCUCCGUGCAAAGCCUUUGCUCUUUGAGCUUGAACGUGGAUCUUUACUCCAUAAAGCACUGUCAGAAAAGGUAAUUUUUUUUUUAAAGACAACAGAGGAUUGAGCAUCA
B7: 100621730_100624656_1126_CDS_ENSMUSG00000028532_ENSMUST00000030257|mouse|control|control (ssRNA)
RNA: GGGAGUUCUACAGUCCGACGAUCGACUAUGUGCUUGGACUGUGGCCGGACGGUAGAGACGUAGAUGGGUCGACUGCGGUGCUCGUAGCUGCCCUUACACCGGAACUUGUGUGCUGGGAAGACGGUGAAAAUCCCUUCUUCUGACAACAGAGGAUUGAGCAUCA
B8: chr12:39763582:39763583:-_ENSG00000139116_ENST00000544797|hu_mus|hu_hu_hu_mus_False|28_68 (ssRNA)
RNA: GGGAGUUCUACAGUCCGACGAUCCUCUAGGAACUGGGCAUUCACUUUGAAUUCAGGAGGGGGCAGCCCAUUUUUAAUCGCUGAGGUCUUUUUCUCAUCAAUACUCUUAAAAAGGUGUCUAACAGCACGAGAGAUGAUGCCCUGCAACAGAGGAUUGAGCAUCA
B9: chr15:103023242:103023243:-_ENSMUSG00000009575_ENSMUST00000118152|mus_hu|motif|central (ssRNA)
RNA: GGGAGUUCUACAGUCCGACGAUCAACAUCUGAACUAGCAGCUUUGAUGAGGGGUGGGGGGCAGAAAAUUUGCCGAGUCACGGAGUAGUUCCAGUCUUGGAGACAGCUCAGUGAGGACCAAAGCCUGUGUGUCAGGCUUAAACUCAACAGAGGAUUGAGCAUCA
B10: chr3:20019835:20019836:+_ENSG00000144566_ENST00000273047|hu_hu|FALSE|FALSE (ssRNA)
RNA: GGGAGUUCUACAGUCCGACGAUCCAUGAAUAUUUCAUUUACAUUCAUUGAUGUUUUAGCGGAUGUCUCCAUGAAUAAUAAACUAUUGUCAUCUGCAUAGGACUGUGCUUCCUGGAAAUCUACUGCUCUUUUAUUUGCUAGGUCCAACAGAGGAUUGAGCAUCA
B11: chrX:71549400:71549401:+_ENSMUSG00000019087_ENSMUST00000019231|mus_hu|mus_mus_mus_hu_False|1_38 (ssRNA)
RNA: GGGAGUUCUACAGUCCGACGAUCGCAGUAGGAAGAGGGAAGCUCUUCAGUCCAGUGCGCUGCAGGGUGGGAAAGCAACAACACGGACACCGUCCCACCUCAAUUCCCCCCACUGGCACAGGGUCACACAAUCUGGGAAGUGAUCAACAGAGGAUUGAGCAUCA
B12: chr3:150289932:150289933:+_ENSG00000144895_ENST00000460851|hu_hu|FALSE|FALSE (ssRNA)
RNA: GGGAGUUCUACAGUCCGACGAUCUUUGUAGUUUUUCACAUCCCACACUUCCAUUUGUCCCCUCAGAUUUCCAAAUCCAGCUAAUACUAAUAUAUGUCCAUGAGGGCUAUAGUAGGCUGCAUUACGAGGACCAGUUCCAAAGUCCAACAGAGGAUUGAGCAUCA
B13: chr7:19721593:19721594:+_ENSMUSG00000050428_ENSMUST00000053109|mus_mus|FALSE|FALSE (ssRNA)
RNA: GGGAGUUCUACAGUCCGACGAUCAUUGGGUAAGUUGCCAUCUGGUGAAUGGGGCUCUCGGACAUUGGAGAUUCGGAAAGCUAUACGCACCUCGCCGGGCCCAGGGCCUGGCCGUUCCUCCUUGCGGAGACCCUUGGUAGGAGGCAACAGAGGAUUGAGCAUCA
B14: chr7:141450121:141450122:+_ENSG00000106028_ENST00000265304|hu_mus|hu_hu_hu_mus_True|18_98 (ssRNA)
RNA: GGGAGUUCUACAGUCCGACGAUCUCAUCCGUUCUAUUCCUUCUCUUUUGUCUGGUCACUCAGAAAUAUAAUGUUAUCAGCUAUGAUUGUUGUUGCUUGCCGCCUCACAUUGUUUUUAUCCAUGUAUUCGCCAUAGUCCACUUUCAACAGAGGAUUGAGCAUCA
B15: chr11:106117246:106117247:-_ENSMUSG00000020706_ENSMUST00000021048|mus_mus|motif|central (ssRNA)
RNA: GGGAGUUCUACAGUCCGACGAUCGCAGGCCUUACAAGUUAAAAGUAGAGGCUAGGAAGUAGAGUGCAAUAACUCGUAUCCGGAACGCUAGGAAGCAUCAACCAGAAGUUCUAUAUCUCUUCACAAAACUAGUGACCUCCAGUACAACAGAGGAUUGAGCAUCA
B16: 59272170_59272290_945_CDS_ENSMUSG00000026024_ENSMUST00000027178|mouse|control|control (ssRNA)
RNA: GGGAGUUCUACAGUCCGACGAUCAAACACCUCUCCCUGCUCAUCCAGUGCCUCUGGGUGAGGGCUGGGAGCAGGGCUGGCAUGCUUUUCUGCUUGAGACUCGGACAAUGUCACACCUAAAGGGCAGCAAUGGCUGUCCGAUAUCAACAGAGGAUUGAGCAUCA
B17: chr13:100200628:100200629:-_ENSMUSG00000052727_ENSMUST00000064762|perfect_dup|FALSE|FALSE (ssRNA)
RNA: GGGAGUUCUACAGUCCGACGAUCGUCUCCGGGUGUCUUCCCUCCGCUGUCUUUCUCCACACUAGAUGUAGUCAAAUCUCUAUUCAAGGCCAGAUGAUGUUGCAUUGUAUCAAAUAGCAUUGAGGAGCGGAAGCCAUAGGGCUCCAACAGAGGAUUGAGCAUCA
B18: chr3:179287964:179287965:+_ENSG00000136518_ENST00000429709|hu_hu|hu_hu_hu_mus_True|48_58 (ssRNA)
RNA: GGGAGUUCUACAGUCCGACGAUCCUUGAGUGGUGAGAUGGCCUCCAUGUUCUCCCUGGGCACGCGGAGGGCAUUGGUAUCUAUGUAGUAGGUGGGACCGCCCUGCUUGCCUUUGUCACCAUCAAUCUCCAUCAUUGUACUUCCCAACAGAGGAUUGAGCAUCA
B19: chr2:17927185:17927186:-_ENSG00000163029_ENST00000351948|hu_mus|FALSE|FALSE (ssRNA)
RNA: GGGAGUUCUACAGUCCGACGAUCUUUAUCAAAAUCUUCCAGUUCUUCUUGUCUUGGUCUUUUAGCAUUUUCAGGAGAGCAGAAAUUUUCUUCCUUUCUUUUGGCCAUCAGAUCUCCAACAAGUCGCGGUCACCCCGGGGAAGCCAACAGAGGAUUGAGCAUCA
B20: chr19:16212804:16212805:+_ENSG00000167460_ENST00000300933|hu_mus|hu_hu_hu_mus_False|1_18 (ssRNA)
RNA: GGGAGUUCUACAGUCCGACGAUCAACAAUUCUGGAGUGAAGGAAAGAUGUAACAUGGAACAGCAUUAAAGCUCAGUCAGAAGGCACAUGGGCAACAAUGAUCACCCCAGCAUUCUCCUACGUUGACCUUAAAGACAGAUGUUUCAACAGAGGAUUGAGCAUCA
B21: chr17:62499630:62499631:-_ENSG00000108654_ENST00000581693|hu_hu|FALSE|FALSE (ssRNA)
RNA: GGGAGUUCUACAGUCCGACGAUCGAGCACCACCGUAGAUACAAGUAGACUUCAAGCGACAUGCUCUACAAUAUUCAGCAGCUACUUGCUGCACCUGUUGGGCCAGUUCCCGAGUUGGUGCCAGCACCAAACAAAUAGGCCCAUCAACAGAGGAUUGAGCAUCA
B22: 93044054_93044174_1553_3pUTR_ENSMUSG00000027217_ENSMUST00000111265|mouse|control|control (ssRNA)
RNA: GGGAGUUCUACAGUCCGACGAUCACCCUCAGCCAGCGGGAGCAGGGACCGCUUCGCUCUCCAGCAGAUGGUGCUGCAGAGUCUGUCCUUGUGUUGUGAAAAGCCGGCUCCUUGGGGCCUGAGGACCGGGCUCCUCCUCCAGGACAACAGAGGAUUGAGCAUCA

The other results are listed elsewhere or left out.

This assay deals with T1, UNK ZnF1-3. The experiment in a line: nsRBNS (natural sequence RNA bind-n-seq); RBNS binding buffer (assumed for nsRBNS): 25 mM Tris pH 7.5, 150 mM KCl, 3 mM MgCl2, 0.01% Triton X-100, 500 ug/ml BSA, 20 U/ml SUPERase-In, 4 C; UNK is unkempt and MSI1 is Musashi-1; names of the RNAs are library labels; protein concentration not given here; high values mean tight binding.
As to B1, the binding signal was 3.06 enrichment R.
To B2 belongs 1.92 enrichment R; to B3, 0.688 enrichment R; to B4, 0.481 enrichment R.
To B5 belongs 2.07 enrichment R; to B6, 0.883 enrichment R.
To B7 belongs 0.812 enrichment R; to B8, 1.81 enrichment R.
Regarding B9, the binding signal was found to be 1.45 enrichment R.
The same measure for B10: 0.593 enrichment R.
To B11 belongs 1.14 enrichment R.
The same measure for B12: 1.05 enrichment R; for B13: 0.837 enrichment R; for B14: 0.373 enrichment R.
In turn, B15 yielded a binding signal of 1.8 enrichment R.
To B16 belongs 0.459 enrichment R.
In the case of B17, the binding signal turned out to be 1.14 enrichment R.
To B18 belongs 0.639 enrichment R.
The same measure for B19: 0.711 enrichment R; for B20: 1.31 enrichment R.
The same measure for B21: 0.907 enrichment R.
Regarding B22, the binding signal was 0.543 enrichment R.
